# About 200 (0.062%) of roughly 320,000 compounds were called active. The inconclusive results got no clear call from the source; some entries with a clear call stand among them for comparison. Calls follow the shape of the dose curve; as a rule, active = well fitted activation curve with a large enough effect; inconclusive = small, poorly fitted or top-dose-only effect; inactive = no such curve, though single readings can be large or run the other way. Potencies of inconclusive entries are left out as doubtful fits.
# Test: qHTS assay for re-activators of p53 using a Luc reporter; also: nearly all actives have a fitted effect of over 45% in size; as to activity change, positive = activation: % of control where 0% means no effect
# Conditions: H1299 p53-A138V BP100-luciferase reporter, luminescence, 24 h; series mostly up to 92.2 µM; activity change, positive = activation: at the top concentration
# How it was run: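 H1299 (p53-null), stable ts p53-A138V + BP100-Luc; 1000 cells/well, Opti-MEM/10% FBS; cpd 4 pt, 1:5; 24 h, 37 deg C, 5% CO2; detection reagent 10 min RT; luminescence.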
# Potency is read from the fitted curve at half-maximal effect; tags tell the direction and shape of the fitted curve.
Compound,Potency,"activity change, positive = activation"
O=C(/C=C/c1cccc(Br)c1)c1ccc2c(c1)OCO2,"inconclusive [activator, partial curve, poor fit]",
Cn1c(CCN2CCCCCC2)nc2cc(NC(=O)Nc3ccccc3)ccc21,"inconclusive [activator, partial curve, poor fit]",
Cc1ccc(OCc2cc(C(=O)N3CCN(C4CCCC4)CC3)no2)cc1C,"inconclusive [activator, single point]",
O=c1c2[nH]c3ccc(F)cc3c2ncn1CCN1CCOCC1,"inconclusive [activator, partial curve, poor fit]",
CC(=O)c1cccc(OCc2cc(C(=O)N3C[C@@H](C)O[C@@H](C)C3)no2)c1,"inconclusive [activator, partial curve, poor fit]",
C/C(=N\NC(=O)COc1ccc(C)cc1C(C)C)c1cc2ccccc2o1,"inconclusive [activator, partial curve, poor fit]",
Cc1ccc(-c2noc(COc3ccccc3C)n2)cc1,"inconclusive [activator, partial curve, poor fit]",
c1ccc(Oc2cc(-n3cncn3)ncn2)cc1,"inconclusive [activator, partial curve, poor fit]",
CC(C)Cc1nnc(NC(=O)CSc2nc(-c3ccccc3)cc(=O)[nH]2)s1,,inactive: 0.307%
C=C(C)C(=O)Nc1cccc(C2=NOC3(C2)C[C@H](C(N)=O)N(C(=O)/C=C/C)C3)c1 (stereo not given in full),"inconclusive [activator, single point]",
CCc1ccc(CCC(=O)Nc2ncc(Cc3ccccc3Cl)s2)o1,"inconclusive [activator, full curve, poor fit]",
O=[N+]([O-])/C(C(Cl)=C(Cl)Cl)=C(/Sc1ccccc1)N1CCCCC1,"inconclusive [activator, single point]",
COc1ccc(Cn2c(C)c(C)c(C#N)c2NC(=O)Nc2cccc(Cl)c2)cc1,"inconclusive [activator, single point]",
CC(=O)N/C(N)=N/c1nc2cc([N+](=O)[O-])ccc2o1,"inconclusive [activator, partial curve, poor fit]",
CCOC(=O)c1c(C)nc2sccn12,,inactive: -3.96%
CCNC(=O)CC1C(=O)N(c2ccccc2)C(=O)N1Cc1ccc(OC)cc1 (stereo not given),"inconclusive [activator, full curve, poor fit]",
Cc1ccc(Oc2ncc(CN3CCOCC3)s2)cc1,"inconclusive [activator, single point]",
N#Cc1nc(-c2ccc(Cl)cc2)oc1NCCc1ccccn1,"inconclusive [activator, single point]",
N#C/C(=C\c1cc(Cl)ccc1O)C(=O)NC1CCCCC1,,inactive: 1.4%
O=C(CSc1nnc(-c2ccncc2)o1)Nc1ccc(F)c(F)c1,"inconclusive [activator, single point]",
Cc1ccc(NC(=O)c2ccco2)c([N+](=O)[O-])c1,,inactive: 21.2%
O=C(NC(=S)Nc1cccnc1Cl)c1ccc(F)cc1,"inconclusive [activator, full curve, poor fit]",

Compound,Potency,"activity change, positive = activation"
Cc1ccc(C(=O)n2cnnc2N)cc1,,inactive: -2.47%
COc1cc(/C=C2\N=C3CCCCCN3C2=O)ccc1O,"inconclusive [activator, partial curve, poor fit]",
COc1cccc(-n2nnnc2SCC(=O)Nc2nc3c(s2)CCCC3)c1,"inconclusive [activator, partial curve, poor fit]",
COc1ccc(C)cc1-n1nnnc1SCC(=O)NC1CCCC1,,inactive: -1.95%
COCC(=O)NC1CCN(C(=O)NCc2ccccc2)CC1,"inconclusive [activator, single point]",
CC(=O)Nc1ccccc1C(=O)C(=O)Nc1ccccc1,"inconclusive [activator, full curve, poor fit]",
CCN1/C(=C/C(C)=O)Sc2ccc(OC)cc21,"inconclusive [activator, partial curve, poor fit]",
CN(CCNC(=O)CN1C(=O)CSc2ccc(S(=O)(=O)N3CCCC3)cc21)Cc1ccccc1,"inconclusive [activator, partial curve, poor fit]",
CCCC(=O)N1CCCC(c2nc(-c3cccc(OC)c3)no2)C1 (stereo not given),"inconclusive [activator, single point]",
COc1ccc(NC(=O)N(CCN2CCCC2)Cc2cc3cc(OC)c(OC)cc3[nH]c2=O)cc1,"inconclusive [activator, single point]",
CCC1(C)Cc2c(sc(NC(=S)NC(=O)c3ccccc3)c2C#N)CO1 (stereo not given),"inconclusive [activator, full curve, poor fit]",
O=C(NCCCc1ccccc1)c1cnc2n(c1=O)CCS2,"inconclusive [activator, full curve, poor fit]",
Cn1c(COc2ccccc2)nc2ccccc21,"inconclusive [activator, partial curve, poor fit]",
COc1cc(CC2COC(c3ccc(O)c(OC)c3)C2COC(C)=O)ccc1O (stereo not given),,inactive: -2.96%
COC(=O)CC1(C(=O)OC)Oc2ccc(Br)cc2C(=O)N1c1cc(Cl)c(Cl)cc1Cl (stereo not given),,inactive: -0.328%
Cc1ccc(C(=O)Nc2nc(C)c(C)s2)o1,"inconclusive [activator, partial curve, poor fit]",
O=C(CN1CCN(c2ccccc2)CC1)Nc1ccc(OCc2ccccc2)cc1,"inconclusive [activator, single point]",
CCOC(=O)CSc1nc2cc(OCC)ccc2cc1C#N,"inconclusive [activator, partial curve, poor fit]",
CC(C)(C)C(=O)Nc1nnc(SCc2cccc(F)c2)s1,"inconclusive [activator, partial curve, poor fit]",
CCCCOC(=O)Nc1ccc(N2CCOCC2)cc1,"inconclusive [activator, partial curve, poor fit]",
COC(=O)[C@H](Cc1ccccc1)N(C)S(=O)(=O)c1cccc(S(=O)(=O)N(C)[C@@H](Cc2ccccc2)C(=O)OC)c1,"inconclusive [activator, full curve, poor fit]",
Cc1cccc(NC2=C(NC(=O)c3ccccc3)C(=O)c3ccccc3C2=O)c1,"inconclusive [activator, partial curve, poor fit]",

Compound,Potency,"activity change, positive = activation"
COc1ccccc1C(=O)/C=C/c1ccc(N2CCCCC2)c([N+](=O)[O-])c1,"inconclusive [activator, partial curve, poor fit]",
C=CCNc1nc(C(=O)OC(C)C(=O)c2ccc(C)cc2)cs1 (stereo not given),"inconclusive [activator, partial curve, poor fit]",
O=C(Nc1ccccc1)N1CCCC2CCCCC21 (stereo not given),"inconclusive [activator, full curve, poor fit]",
NC(=O)Nc1ccccc1C(=O)NCCc1ccccc1,"inconclusive [activator, partial curve, poor fit]",
O=C(COC(=O)/C=C/c1cccc(F)c1)Nc1cccc(S(=O)(=O)NC2=NCCCCC2)c1,,inactive: 6.39%
CCCOc1ccc(CN(CCC#N)C(=S)NC(=O)c2ccccc2)cc1,"inconclusive [activator, single point]",
COc1ccc(-c2noc(CN(C)S(=O)(=O)c3ccc(Cl)cc3)n2)cc1OC,"inconclusive [activator, partial curve, poor fit]",
CC(C)Cc1nnc(NC(=O)c2cccc(S(=O)(=O)N3CCOCC3)c2)s1,,inactive: 1.48%
CCc1cc2c3c(c(=O)oc2cc1OC)CCCC3,,inactive: -1.36%
Cc1cccc(NC(=O)Nc2c(C)n(C)n(-c3ccccc3)c2=O)c1,,inactive: -0.681%
O=[N+]([O-])c1cc(-c2n[nH]c(-c3ccccc3)n2)cc([N+](=O)[O-])c1,"inconclusive [activator, single point]",
Cc1ccc(C(=O)CSc2nnc(-c3ccco3)o2)o1,"inconclusive [activator, full curve, poor fit]",
O=C(Nc1ccc2c(c1)OCO2)c1cc(-c2cccc(O)c2)on1,"inconclusive [activator, partial curve, poor fit]",
O=C(Cn1cccn1)N1CCCC(N2CCN(c3ccccc3F)CC2)C1 (stereo not given),"inconclusive [activator, single point]",
O=C(OCC(=O)c1c[nH]c2ccccc12)C1=COCCO1,"inconclusive [activator, full curve, poor fit]",
CCN(CC)C(=O)CSc1nnc(-c2ccccc2)o1,"inconclusive [activator, full curve]",
CC1(C)CC(=O)c2c(O)cc(OCC(=O)N3CCN(c4ccccc4)CC3)cc2O1,,inactive: 5.42%
Cc1ccc(CNc2ccc3c(c2)ncn3C)cc1,,inactive: 20.3%
COc1ccc(-c2cc(C(=O)N3CCCc4ccccc43)no2)cc1,"inconclusive [activator, partial curve, poor fit]",
Brc1ccc(-n2cc(-c3ccccc3)c3c(NN4CCOCC4)ncnc32)cc1,,inactive: -19.9%
CC(=O)c1ccccc1OCCOc1ccccc1C(C)=O,"inconclusive [activator, partial curve, poor fit]",

# From PubChem BioAssay AID504706 (National Center for Advancing Translational Sciences (NCATS), 2011)
